This is an account of results in ChEMBL document CHEMBL1201862, “PubChem BioAssay data set” (2004).

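Compound exposure: 48 hours, 5 concentrations, 96-well plates. Here, GI50 denotes the concentration required for 50% inhibition of growth.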 Calls of active or inactive are those of the source. Rule as the data show it: active = GI50 up to about 1.1 µM and inactive = higher.

For the assay, the system named is NCI-H322M. Briefly: DTP human tumour cell line panel, 48 h.
As to `c1cc(CNCCN2CCNCC2)ccn1`, the GI50 was inactive: > 100 µM.

Take `CN(C)Cc1c[nH]c2ncnc(O)c12`: the GI50 was inactive: > 100 µM.

As to `COc1ccc2oc3c(OC)c(OC)c(OC)cc3c(=O)c2c1`, the GI50 is inactive: > 100 µM.

For the compound `COC(=O)c1cc(CC2Cc3cc4c(cc3C2=O)CCC4)cc2c1CCC2` (stereo not drawn), the GI50 was inactive: 77.6 µM.

Consider `NC(=S)N/N=C/c1nccc2ccccc12`, for which the GI50 was active: 0.678 µM.

Take `OCc1cc2c([nH]c3ccccc32)c(C(O)CO)n1` (stereo not drawn): the GI50 is inactive: > 100 µM.

Turning to `O=[N+]([O-])c1cccc(-c2cn3c(n2)Cc2ccccc2C3)c1`, the GI50 is inactive: 86.3 µM.

Turning to `COc1ccccc1NC(=O)CC(=O)NNCC(=O)Nc1nnc(-c2ccccc2)o1`, the GI50 is inactive: > 100 µM.

Turning to `Nc1cccc2cc(Cl)cnc12`, the GI50 was inactive: > 100 µM.

With `COc1cc2c(cc1O)C(c1cc(O)c(O)c(OC)c1)C(O)(C(=O)O)C(CO)C2O` (stereo not drawn), the GI50 is inactive: > 100 µM.

With `Cc1cc(N)c2cc(NC(=O)Nc3ccc4nc(C)cc(N)c4c3)ccc2n1`, the GI50 was inactive: > 100 µM.

As to `COc1cc(/C=N/c2nncs2)ccc1O`, the GI50 is inactive: > 100 µM.

In the case of `COC(=O)c1c(O)ccc2c1c1c(n2-c2ccc(OC)cc2)C(=O)c2ccccc2C1=O`, the GI50 is inactive: 18.8 µM.

For `c1ccc2cc3c(cc2c1)OP1(Oc2cccc4cccnc24)(O3)Oc2cc3ccccc3cc2O1`, the GI50 is inactive: 5.43 µM.

As for `N#CCSc1c(-c2ccccc2)c(=O)n(-c2ccccc2)c(=S)n1-c1ccccc1`, the GI50 was inactive: > 100 µM.

Regarding `C#CN1C(=O)c2c(c(-c3ccccc3)c(-c3ccc(Oc4ccc(-c5c(-c6ccccc6)c6c(c(-c7ccccc7)c5-c5ccccc5)C(=O)N(C#C)C6=O)cc4)cc3)c(-c3ccccc3)c2-c2ccccc2)C1=O`, the GI50 was inactive: > 100 µM.

Turning to `COc1ccc(CN(CCN(C)C)c2ccccn2)cc1.Cn1c(=O)c2[nH]c(Br)nc2n(C)c1=O`, the GI50 is inactive: > 100 µM.

Regarding `O=C(NC1CCCCC1)c1nn[nH]c1Cl`, the GI50 was inactive: > 100 µM.

For `N/N=C1N=C(Cl)/C(=C/c2ccco2)N\1`, the GI50 is inactive: 67.8 µM.

Turning to `CNc1nc2n(CCO)c(-c3ccccc3)c(-c3ccccc3)nc-2c(=O)n1`, the GI50 was inactive: > 50 µM.

For the compound `Cc1ccnc2c1ccc1nc3ccccc3n12`, the GI50 is inactive: > 100 µM.

Take `CCOC(=O)CCC1(C(=O)O[C@@H]2C[C@H](C)CC[C@H]2C(C)C)CCCCC1=O` (stereo partly drawn): the GI50 was inactive: > 100 µM.

For `Cc1ccc(S(=O)(=O)NCCSCCNS(=O)(=O)c2ccc(C)cc2)cc1`, the GI50 is inactive: > 100 µM.

As for `CSCCOC(=O)C(=[N+]=[N-])c1ccc([N+](=O)[O-])cc1`, the GI50 was inactive: > 100 µM.

Turning to `CC1=Nc2sc3c(c2C2=NCCN12)CCCC3`, the GI50 is inactive: 36.4 µM.

Consider `Cc1nc2c(s/c(=N\N)n2-c2ccccc2)c(=O)n1C`, for which the GI50 was inactive: > 100 µM.

Consider `CC(C)Cc1cnc(CC(C)C)c(=O)[nH]1`, for which the GI50 is inactive: > 100 µM.

With `CC1OC(OC2C(O[C@H]3CC[C@@]4(C)C(=CC[C@H]5[C@@H]6C[C@@H]7O[C@]8(CC[C@@H](C)CO8)[C@@H](C)[C@@H]7[C@@]6(C)CC[C@@H]54)C3)OC(CO)C(O)C2OC2OC(CO)C(O)C(O)C2O)C(O)C(O)C1O` (stereo partly drawn), the GI50 is inactive: 1.74 µM.

For the compound `CC1CC(c2ccc([N+](=O)[O-])cc2)=Nc2ccccc2S1` (stereo not drawn), the GI50 was inactive: 29.1 µM.

`CCc1nnc2sc(-c3ccc(-c4ccccc4[N+](=O)[O-])o3)nn12`: the GI50 is inactive: 95.7 µM.

For `CC(C)C(=O)/C=C/c1ccccc1`, the GI50 is inactive: > 100 µM.

Turning to `CN1CCCN2CCN(C)CCN(CC1)CC2`, the GI50 is inactive: > 100 µM.

As for `CC(C)(C)OC(=O)NC12C3C4C1C1C2C3C41NC(=O)OC(C)(C)C` (stereo not drawn), the GI50 was inactive: 75 µM.

For the compound `O=C1c2n[nH]nc2C(=O)c2n[nH]nc21`, the GI50 was inactive: > 100 µM.

`CCCCOC1CC2(c3ccc(OC)cc3)C(=O)c3ccccc3N2O1` (stereo not drawn): the GI50 was inactive: 48.9 µM.

For `CC(CCC(=O)O)c1ccc(Br)cc1` (stereo not drawn), the GI50 is inactive: > 100 µM.

With `[O-][S+](Cc1cnc2ccccc2c1)c1nc2ccccc2nc1-c1cccs1` (stereo not drawn), the GI50 was inactive: 17.8 µM.

Consider `Cc1ccc2ccc(O)cc2c1`, for which the GI50 was inactive: 79.4 µM.

Take `C[S+](C)([O-])=Nn1c(=O)n2n(c1=O)[C@H]1CC[C@@H]2C1`: the GI50 was inactive: > 100 µM.

For `O=C1CC2(c3ccccc3)ON=C(c3ccccc3)N2c2ccccc2N1` (stereo not drawn), the GI50 is inactive: 85.3 µM.

`Nn1c(=O)[nH]c2ncn(Cc3ccccc3)c2c1=O`: the GI50 is inactive: > 100 µM.

Consider `COc1cc(C2S/C(=C/c3ccccc3)C(=O)N2c2ccc([N+](=O)[O-])cc2)cc(OC)c1OC` (stereo not drawn), for which the GI50 is inactive: > 55.8 µM.

In the case of `O=[N+]([O-])c1ccc2c(c1)C1=NN(c3ccccc3)C(c3ccccc3Br)C1CCC2` (stereo not drawn), the GI50 is inactive: 30.5 µM.

With `C[C@@H](CCO)OC1OC(COC(=O)C(C)(C)C)C(OC(=O)C(C)(C)C)C(OC(=O)C(C)(C)C)C1OC(=O)C(C)(C)C` (stereo partly drawn), the GI50 is inactive: 51.8 µM.

On to `Cc1cc(C)n(CC(Cn2nc(C)cc2C)=C(/C(Cl)=C(/Cl)Nc2ccc([N+](=O)[O-])cc2)[N+](=O)[O-])n1`, for which the GI50 was inactive: 4.82 µM.

`COc1cc2cc(C(=O)N3CC(CCl)c4c3cc(N)c3ccccc43)[nH]c2cc1OCCN(C)C` (stereo not drawn): the GI50 was active: < 0.005 µM.

On to `CC(C)c1ccc(Cc2ccc(C(C)C)c(NC(=O)C(=O)Cc3cnc4ccccc4n3)c2C(C)C)c(C(C)C)c1NC(=O)C(=O)Cc1cnc2ccccc2n1`, for which the GI50 was inactive: > 100 µM.

For `C/C(=N\NC(=S)NC(CCC(=O)O)C(=O)O)c1ccccn1` (stereo not drawn), the GI50 was inactive: > 100 µM.

Regarding `COC(=O)CCCC1(CCCC(=O)OC)CCCCCCCCC(CCCC(=O)OC)(CCCC(=O)OC)C(=O)C1=O`, the GI50 was inactive: > 100 µM.

On to `O=C(NC(CO)Cc1ccc(Oc2cc(CC(CO)NC(=O)OCc3ccccc3)ccc2OC(=O)OCc2ccccc2)cc1)OCc1ccccc1` (stereo not drawn), for which the GI50 is inactive: 19.9 µM.

On to `O=c1c(-c2ccccc2Cl)coc2cc(F)ccc12`, for which the GI50 was inactive: 30.3 µM.

Regarding `CC(=O)OCCC(O[Si](c1ccccc1)(c1ccccc1)C(C)(C)C)C(C)(C)O` (stereo not drawn), the GI50 was inactive: > 100 µM.

Regarding `CN1CCCCC(C(O)(c2ccccc2)c2ccccc2)C1=O` (stereo not drawn), the GI50 is inactive: > 100 µM.

Regarding `COC(=O)[C@]1(c2cc3ccccc3[nH]2)CC2CN(CC(=O)N(C)OC)C1C1OC(C)(C)OC21` (stereo partly drawn), the GI50 is inactive: > 100 µM.

As for `COC(=O)C1C(C(=O)OC)C2(OC)c3ccccc3-c3ccccc3C12` (stereo not drawn), the GI50 is inactive: 54.1 µM.

Turning to `C[S+](C)CC1OC(n2cnc3c(N)ncnc32)C(O)C1O` (stereo not drawn), the GI50 is inactive: > 225 µM.

With `Nc1ncnc2c1nnn2C1OC(CO)C(O)C1O` (stereo not drawn), the GI50 is inactive: 5.47 µM.

In the case of `COc1ccc(/N=N/N2CCCC2)cc1`, the GI50 is inactive: > 100 µM.
